Laboratory results: PubChem BioAssay AID1240 (Sanford-Burnham Center for Chemical Genomics, 2008)
In all, about 50,000 compounds went through this assay and about 800 (1.6%) showed an effect of 50% or more. Some of the results follow.

target: Bcl-2-like protein 10 (Homo sapiens) (UniProt Q9HD36); experiment: TR3 peptide-Bcl-B binding displacers, biochemical primary FP assay, phenotype converters (AID 1240); settings: GST-Bcl-B / FITC-TR3 peptide fluorescence polarization; stronger effect = higher value; compound at 3.75 mg/L;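 note: 0% = Bcl-B with tracer peptide and DMSO and 100% = tracer peptide lacking Bcl-B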
Chain of UniProt Q9HD36 (Q9HD36 whole entry, looked up): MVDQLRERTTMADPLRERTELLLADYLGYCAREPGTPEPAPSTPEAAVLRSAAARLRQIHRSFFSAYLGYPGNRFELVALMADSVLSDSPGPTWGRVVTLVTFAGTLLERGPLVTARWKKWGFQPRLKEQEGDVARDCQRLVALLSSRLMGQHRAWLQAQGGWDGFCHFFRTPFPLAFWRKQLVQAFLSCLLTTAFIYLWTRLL

Compound	displacement [%]
N#CC1=C(N)Oc2cc(N)ccc2C1c1cccs1 (stereo unspecified)	-0.5
Fc1ccc(-c2noc(-c3ccc(Br)cc3)n2)cc1	-5.1
O=C1NC(=O)N(c2ccc(Br)cc2)C(=O)/C1=C/c1ccc(F)cc1	0.4
Cc1nc(-c2ccccc2)sc1C(N)=O	14.3
COc1ccc2c(c1OC)C(=O)OC2Nc1ccc(Br)cc1 (stereo unspecified)	-12.6
CC1=NN(c2ccccc2)C(=O)/C1=C\c1ccc(-c2ccc3c(c2)C(=O)NC3=O)o1	10.9
c1ccc(COc2ccc(C3Nc4cccc5cccc(c45)N3)cc2)cc1	5.8
COc1ccc(NC(=O)C(=O)NC2CCCC2)cc1	6.1
Cc1ccc(N2C(=O)NC(=O)/C(=C\c3ccc4c(c3)OCO4)C2=O)cc1C	2.1
Cc1sc(NC(=O)C2C3C=CC(C3)C2C(=O)O)nc1-c1ccccc1 (stereo unspecified)	-1.3
Cc1ccc2oc(-c3cccc(NC(=O)COc4ccccc4[N+](=O)[O-])c3C)nc2c1	-1.9
COc1ccc(C(=O)Nc2cccc(-c3nc4ccccc4o3)c2C)cc1	-0.6
O=C(NCCc1ccccc1Cl)C(=O)NCc1ccco1	10.9
CCOc1ccccc1C(=O)Nc1cccc(OC)c1	-1.6
COc1ccc(/C=C/C(=O)NCc2ccc(Cl)cc2)cc1	-10.3
COc1ccc(C(=O)N2CCN(Cc3ccccc3)CC2)cc1[N+](=O)[O-]	14.1

Compound	displacement [%]
Cc1ccc(CN2CCN(/N=C\c3cccc(O)c3)CC2)cc1	-8.1
CCOc1cc(OCC)cc(C(=O)Nc2cc(-c3nc4ccccc4s3)ccc2C)c1	4.1
CC(=O)OCCCN1C(=O)c2ccccc2C1=O	4.4
Cc1ccc(/C=C2/SC(=S)N(C(C)C(=O)O)C2=O)cc1 (stereo unspecified)	12.4
COc1ccccc1NS(=O)(=O)c1cccc2c1C(=O)c1ccccc1C2=O	3
COc1ccc(C(O)(C(=O)NCc2ccc(N(C)C)cc2)c2ccc(OC)cc2)cc1	-1.9
COc1ccc(OC(=O)c2ccc(OC)c(S(=O)(=O)N3CCOCC3)c2)cc1	-2.7
S=C(Nc1ccccc1)Nc1ccc(Cl)cc1	6.9
O=[N+]([O-])c1ccc2[nH]c(O)c(C=NCc3ccccc3)c2c1	-3.4
O=C1OC2C=CC(Br)=CC2C=C1C(=O)N1CCSC1c1ccc2c3c(cccc13)CC2 (stereo unspecified)	24.2
C=CCNC(=O)C(=O)Nc1ccccc1OC	10.1
O=C(Nc1ccc(-c2cnc(-c3ccc(NC(=O)c4ccco4)cc3)nc2)cc1)c1ccco1	24.6
O=C(O)C1C(C(=O)Nc2ccc(I)cc2)C2C=CC1C21CC1 (stereo unspecified)	-1.2
CC(=O)CC(=O)Nc1cc(C(F)(F)F)ccc1Cl	0.4
Cc1ccccc1OCCNC(=O)CCc1ccccc1	-21.6
